Measurements reported in PubChem BioAssay AID686978 (National Center for Advancing Translational Sciences (NCATS), 2013).
Hit rate of the full screen: of about 420,000 compounds, about 64,000 (15%) were called active. The shares of active, inactive and inconclusive entries below differ from those in the screen. The call rests on the fitted dose curve; in most records, active means well fitted inhibition curve with a large enough effect; inconclusive means small, poorly fitted or top-dose-only effect; inactive means flat fitted curve, though single readings scatter. No potency is given beside an inconclusive call; the fits are too rough.

Experiment: qHTS for Inhibitors of human tyrosyl-DNA phosphodiesterase 1 (TDP1): qHTS in cells in absence of CPT; further: nearly all actives have a fitted effect of over 55% in size
Settings: DT40 Tdp1-/- hTDP1 cells, no CPT, ATP luminescence, 48 h; activity change, negative = growth inhibition: at 46.2 µM (top of the series)
How it was run: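 Readout: luminescence from CellTiter-Glo after 30 min in the dark at RT. Cells: DT40 Tdp1-/- with stable hTDP1, 400/well. Exposure: compounds alone, ≥48 hr, 37 °C.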
On the % scale 0 is the no-effect control and ±100 the full control effect; potency means the concentration at half of the fitted maximal effect; tags describe the fitted curve by direction and shape.

| Structure (SMILES) | Potency | activity change, negative = growth inhibition |
| --- | --- | --- |
| O=C(c1cc(-c2cccs2)nc2ccccc12)N1CCN(c2ccccc2O)CC1 | inconclusive [inhibitor, single point] | – |
| CCN1/C(=C2\SC(=S)N(Cc3ccccc3)C2=O)Sc2ccccc21 | inconclusive [inhibitor, partial curve] | – |
| O=C(Nc1cccc(S(=O)(=O)NC2=NCCCCC2)c1)c1cc(-c2ccccc2Cl)nc2ccccc12 | inconclusive [inhibitor, single point] | – |
| Cc1ccc(C(=O)c2sc(Nc3ccc(F)cc3)c(C#N)c2N)cc1 | – | inconclusive: -30.1% [inhibitor] |
| COc1cccc(NC(=O)CN2C=NS(=O)(=O)c3ccccc32)c1 | – | inactive: -16.3% |
| CCCn1nnc(NC(=O)c2ccc(-c3ccccc3)cc2)n1 | inconclusive [inhibitor, single point] | – |
| C[C@H](CO)N1C[C@H](C)[C@@H](CN(C)S(=O)(=O)c2ccc(F)cc2)OCc2cnnn2CCCC1=O | – | inactive: -20.3% |
| COc1ccc(S(=O)(=O)Nc2ccccc2C(=O)NCc2ccco2)cc1 | inconclusive [inhibitor, single point] | – |
| CCOC(=O)N1CCN(C(=O)c2ccc(N(Cc3ccc(C)cc3)S(C)(=O)=O)cc2)CC1 | – | inactive: -26.3% |
| Cc1ccc(S(=O)(=O)NCc2ccccc2)cc1 | inconclusive [inhibitor, single point] | – |
| COc1ccc(NC(=O)Nc2cccc3c2O[C@H](CN(C)C(=O)Nc2ccccc2)[C@@H](C)CN([C@H](C)CO)C3=O)cc1 | – | inactive: -10.7% |
| Cc1ccc(C(=O)N2CCN(Cc3ccc4c(c3)OCO4)CC2)cc1S(=O)(=O)N1CCOCC1 | inconclusive [inhibitor, partial curve, poor fit] | – |
| COc1ccc2[nH]c(=O)c(CN(Cc3nnnn3Cc3ccc(F)cc3)CC3CCCO3)cc2c1 (stereo unspecified) | inconclusive [inhibitor, single point] | – |
| N=C1/C(=C/c2cccn2Cc2ccc(Cl)cc2)C(=O)N=C2SC=CN12 | inconclusive [inhibitor, single point] | – |
| NS(=O)(=O)c1ccc(NC(=O)COC(=O)Cc2ccc(Cl)cc2)cc1 | – | inactive: 2.18% |
| COc1ccc(OC)c(NC(=O)C2COc3ccccc3O2)c1 (stereo unspecified) | – | inactive: -20.1% |
| CC1CCN(C(=O)CCC(=O)N2CC(C)Oc3ccccc32)CC1 (stereo unspecified) | – | inactive: -23.1% |
| COC(=O)c1ccc2c(c1)c(C#Cc1ccccc1)c(-c1ccccc1)n2C | active: 16.4 µM | – |
| CCCCNC(=O)C(NC(=O)c1ccc2c(c1)OCO2)C(=O)c1ccccc1 (stereo unspecified) | – | inactive: -9.22% |
| Cc1cc(C(=O)NCCCc2ccccc2)no1 | – | inactive: -4.19% |
| CCOC(=O)c1cnc(NCc2ccc(OC)cc2OC)c2ccccc12 | inconclusive [inhibitor, single point] | – |
| CCOc1ccccc1NC(=O)N1CC(C)Oc2ccc(Cl)cc21 (stereo unspecified) | inconclusive [inhibitor, single point] | – |
| CC12CCC(C(NC(=S)NN)C1=O)C2(C)C (stereo unspecified) | inconclusive [inhibitor, partial curve, poor fit] | – |
| C[C@H](CO)N1C[C@H](C)[C@@H](CN(C)C(=O)NC2CCCCC2)Oc2ccc(NC(=O)C3CCCCC3)cc2C1=O | – | inactive: -17.1% |

| Structure (SMILES) | Potency | activity change, negative = growth inhibition |
| --- | --- | --- |
| COc1ccccc1N1CCc2c(C)nc3c(OC)cccc3c21 | active: 4.11 µM | – |
| Cc1ccc2nc(SCc3nc4cc(Cl)ccc4c(=O)[nH]3)[nH]c2c1 | inconclusive [inhibitor, single point] | – |
| CCOc1ccc(-c2nnc(SCC(=O)Nc3ccc4c(c3)c3ccccc3n4CC)n2N)cc1 | inconclusive [inhibitor, single point] | – |
| NC(=O)c1cc(N)ccc1N1CCCC1 | inconclusive [inhibitor, single point] | – |
| CCN=C1SC(C(=O)Nc2ccc(Cl)c(Cl)c2)CC(=O)N1CC (stereo unspecified) | inconclusive [inhibitor, single point] | – |
| COc1cccc(OC)c1CN1CCC2(CCC(CNC(=O)c3ccn(C)n3)O2)CC1 (stereo unspecified) | inconclusive [inhibitor, single point] | – |
| CCOCCCNC(=O)c1ccc(-c2nc(CS(=O)(=O)c3ccccc3)c(C)o2)cc1 | inconclusive [inhibitor, single point] | – |
| CNC(=O)C1CCCN(c2nnc(C)c3c(C)n(-c4ccccc4)nc23)C1 (stereo unspecified) | – | inactive: -15.7% |
| COc1ccc(NC(=O)Cn2ncn3c(cc4ccccc43)c2=O)c(OC)c1OC | – | inactive: -14.5% |
| CN1CCN(Cc2c(C(=O)N3CCc4ccccc4C3)nc3ccc(Cl)cn23)CC1 | – | inactive: 12.3% |
| COc1ccc2c(CC(=O)OCC(=O)Nc3sc4c(c3C#N)CCC(C)C4)coc2c1 (stereo unspecified) | – | inactive: -12.1% |
| COc1ccccc1N(CC(=O)Nc1ccc2c(c1)OCCO2)S(=O)(=O)c1ccc(C)cc1 | active: 9.2 µM | – |
| COc1ccccc1NC(=O)COC(=O)Cn1c(C)csc1=O | – | inconclusive: -24.6% [inhibitor] |
| CCOc1ccc(N2CC(c3nc4ccccc4n3CCOc3ccc(OC)cc3)CC2=O)cc1 (stereo unspecified) | active: 23.1 µM | – |
| O=C(CCNC(=O)C1CCN(S(=O)(=O)c2ccccc2)CC1)NCc1ccc(Cl)c(Cl)c1 | inconclusive [inhibitor, single point] | – |
| COc1ccc(/C(=N\O)c2ncc(C(F)(F)F)cc2Cl)cc1 | inconclusive [inhibitor, single point] | – |
| Cc1c(OCC(=O)NCC(O)c2ccccc2)ccc2c3c(c(=O)oc12)CCC3 (stereo unspecified) | inconclusive [inhibitor, partial curve] | – |
| Nc1cc(N)cc(C(=O)OCC(=O)Nc2cc(S(=O)(=O)N3CCCCC3)ccc2Cl)c1 | inconclusive [inhibitor, single point] | – |
| CCc1ccc(NC(=O)COc2ccc(F)cc2C(=O)c2cnn(-c3ccccc3)c2)cc1 | inconclusive [inhibitor, single point] | – |
| CCC/C(=C1/c2ccccc2C(=O)N1c1ccccc1)c1ccc2[nH]ccc2c1 | active: 16.4 µM | – |
| CCCCN(CC)CCNC(=O)Cn1cnc2sc(C)c(S(=O)(=O)N3CCN(c4ccccc4OC)CC3)c2c1=O | inconclusive [inhibitor, single point] | – |
| O=C(NCC1CCCO1)c1cc(-c2ccccc2)nc2ccc(Br)cc12 (stereo unspecified) | inconclusive [inhibitor, single point] | – |
| CCOc1cccc2sc(N(Cc3cccnc3)C(C)=O)nc12 | inconclusive [inhibitor, partial curve, poor fit] | – |
| COc1ccc2cc(C(c3nnnn3CCc3ccccc3)N3CCC(O)CC3)c(=O)[nH]c2c1 (stereo unspecified) | – | inactive: 3.09% |

| Structure (SMILES) | Potency | activity change, negative = growth inhibition |
| --- | --- | --- |
| O=C(NCCc1ccccc1)C1CCCN1C(=O)Nc1ccc(Cl)cc1 (stereo unspecified) | inconclusive [inhibitor, single point] | – |
| CCOC(=O)c1ccc(NC(=O)c2nc[nH]c2C(=O)NCc2ccccc2)cc1 | inconclusive [inhibitor, single point] | – |
| O=C(Nc1ccc(F)c(Cl)c1)c1cc(S(=O)(=O)NCc2ccc3c(c2)OCO3)ccc1F | inconclusive [inhibitor, single point] | – |
| CC(C)c1ccc(-c2nn(-c3ccccc3)cc2C(=O)NCC2CCCO2)cc1 (stereo unspecified) | inconclusive [inhibitor, single point] | – |
| Cc1ccc(Cn2cc(-c3ccccc3)nn2)cc1 | inconclusive [inhibitor, partial curve] | – |
| COc1ccccc1Oc1cn[nH]c1-c1ccc(O)cc1O | active: 20.6 µM | – |
| COC(=O)c1cccc(OCC(O)Cn2cnc3cc(C)c(C)cc32)c1 (stereo unspecified) | inconclusive [inhibitor, single point] | – |
| O=c1oc2ccccc2c(NC2CCCCC2)c1NS(=O)(=O)c1ccc(F)c(Cl)c1 | – | inactive: 9.55% |
| Cc1cccc(CSCCNC(=S)Nc2ccccc2)c1 | active: 18.4 µM | – |
| S=c1[nH]nc(-c2cc(-c3ccccc3)n[nH]2)n1/N=C/c1ccc(Cl)c(Cl)c1 | inconclusive [inhibitor, single point] | – |
| CC(NC(=O)CCc1cn(Cc2ccccc2Cl)c2ccccc12)c1ccccc1 (stereo unspecified) | active: 23.1 µM | – |
| CCOC(=O)C1(C)CCN1C(=O)Cc1ccc(OC)cc1 (stereo unspecified) | – | inactive: -8.72% |
| O=c1[nH]c(SCc2ccccc2)nc2ccsc12 | – | inactive: -27.1% |
| O=C(Nc1nc2c(Cl)cccc2s1)c1ccc([N+](=O)[O-])o1 | active: 16.4 µM | – |
| COc1ccc(/C=N/Nc2nc(C)cc(-c3ccccc3)n2)c(OC)c1 | active: 20.6 µM | – |
| O=C(CCN1C(=O)/C(=C\c2cccc(Br)c2)SC1=S)N1CCOCC1 | active: 6.51 µM | – |
| CCCCCCSc1cccc(-c2nc3cc(C)ccn3c2NCc2ccccc2)c1 | active: 13 µM | – |
| N#CC1(NC(=O)COC(=O)C23CC4CC(CC(O)(C4)C2)C3)CCCCC1 | – | inactive: 12.4% |
| O=C(c1cc(COc2ccc(F)cc2Cl)on1)N(CCO)Cc1cccs1 | inconclusive [inhibitor, partial curve, poor fit] | – |
| O=C(NCc1ccccc1)C(c1ccc(C(F)(F)F)cc1)n1c(=O)c(-c2cc3ccccc3[nH]2)nc2ccccc21 (stereo unspecified) | active: 14.6 µM | – |
| O=C(NCCO)C(=O)NCC(c1ccc2c(c1)OCO2)N1CCOCC1 (stereo unspecified) | – | inactive: -3.44% |
| CC(C)CN(c1ccccc1)S(=O)(=O)c1nnc(NC(=O)C2CCCCC2)s1 | inconclusive [inhibitor, full curve, poor fit] | – |
| Cc1cccc(N(CC(=O)NC2CCCC2)C(=O)CCC(=O)Nc2ccccn2)c1 | – | inactive: 1.83% |
